Results are given in words; binding and its absence hold for the method and conditions named. Some results given as binding are weak or reduced against the parent protein; the word gives no strength.
Target: Sso2 (yeast two-hybrid construct) (yeast) (UniProt P39926)
Assay: two-hybrid; yeast 2-hybrid assay, pair-wise testing of all eight yeast exocyst subunits with Sso2; mapping with Sec3 fragments

By UniProt entry, the sequences of proteins in these tests, tags left out. Where a name states a change or a piece, a line headed by the entry shows the natural chain unless it says otherwise.
UniProt P39926: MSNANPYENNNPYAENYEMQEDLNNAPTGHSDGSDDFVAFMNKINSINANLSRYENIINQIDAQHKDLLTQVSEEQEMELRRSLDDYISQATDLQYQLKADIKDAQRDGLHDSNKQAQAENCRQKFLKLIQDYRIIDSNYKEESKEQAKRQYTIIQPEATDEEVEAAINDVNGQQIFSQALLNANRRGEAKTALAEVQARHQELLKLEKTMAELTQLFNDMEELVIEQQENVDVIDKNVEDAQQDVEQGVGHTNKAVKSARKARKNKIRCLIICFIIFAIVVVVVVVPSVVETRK
UniProt P33332: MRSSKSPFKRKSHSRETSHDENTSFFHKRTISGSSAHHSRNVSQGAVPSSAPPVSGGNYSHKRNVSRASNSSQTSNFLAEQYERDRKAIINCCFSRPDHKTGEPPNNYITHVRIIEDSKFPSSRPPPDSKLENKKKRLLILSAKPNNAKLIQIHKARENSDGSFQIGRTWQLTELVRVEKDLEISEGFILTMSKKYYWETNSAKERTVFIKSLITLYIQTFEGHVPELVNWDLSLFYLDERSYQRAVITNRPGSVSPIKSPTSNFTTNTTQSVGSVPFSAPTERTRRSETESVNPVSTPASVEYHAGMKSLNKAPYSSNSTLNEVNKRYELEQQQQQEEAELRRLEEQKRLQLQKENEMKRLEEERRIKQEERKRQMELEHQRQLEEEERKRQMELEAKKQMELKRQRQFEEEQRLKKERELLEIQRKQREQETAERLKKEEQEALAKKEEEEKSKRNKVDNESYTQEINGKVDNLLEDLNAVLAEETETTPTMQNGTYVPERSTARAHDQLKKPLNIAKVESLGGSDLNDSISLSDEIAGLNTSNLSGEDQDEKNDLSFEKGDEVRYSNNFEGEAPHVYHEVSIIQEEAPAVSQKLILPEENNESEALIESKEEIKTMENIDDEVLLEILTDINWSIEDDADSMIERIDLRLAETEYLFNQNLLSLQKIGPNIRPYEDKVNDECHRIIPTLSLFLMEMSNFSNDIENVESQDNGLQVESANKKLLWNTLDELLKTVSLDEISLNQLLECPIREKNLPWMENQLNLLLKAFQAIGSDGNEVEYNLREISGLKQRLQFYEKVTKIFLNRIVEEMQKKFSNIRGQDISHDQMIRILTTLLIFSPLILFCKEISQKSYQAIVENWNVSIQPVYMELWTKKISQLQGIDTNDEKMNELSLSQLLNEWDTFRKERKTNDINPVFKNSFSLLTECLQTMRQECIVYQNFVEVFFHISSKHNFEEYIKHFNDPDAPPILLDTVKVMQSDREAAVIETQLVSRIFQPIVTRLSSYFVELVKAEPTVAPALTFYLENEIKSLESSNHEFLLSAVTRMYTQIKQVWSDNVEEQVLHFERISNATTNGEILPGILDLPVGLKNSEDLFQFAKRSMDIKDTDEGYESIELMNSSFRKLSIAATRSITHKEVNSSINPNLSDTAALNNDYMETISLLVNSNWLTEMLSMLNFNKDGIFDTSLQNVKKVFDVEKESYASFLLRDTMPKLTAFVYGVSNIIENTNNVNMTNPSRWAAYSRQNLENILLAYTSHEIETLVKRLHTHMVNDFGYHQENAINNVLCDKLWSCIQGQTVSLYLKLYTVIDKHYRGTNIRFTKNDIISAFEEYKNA

Row | Substance | binding
1 | Sec3 amino acid 1-320 (yeast two-hybrid construct) (from UniProt P33332 1-320) (domain or fragment) | binds
2 | Sec3 (yeast two-hybrid construct) (from UniProt P33332 1-1336) | binds
